The text below walks through data of PubChem BioAssay AID1240 (Sanford-Burnham Center for Chemical Genomics, 2008).

Screen size: about 50,000 compounds; about 800 (1.6%) showed an effect of 50% or more. The list shows a part of the results.

The assay has as its target Bcl-2-like protein 10 (Homo sapiens) (UniProt Q9HD36). Briefly: TR3 peptide-Bcl-B binding displacers, biochemical primary FP assay, phenotype converters (AID 1240).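 Also: 0% = Bcl-B with tracer peptide and DMSO and 100% = tracer peptide lacking Bcl-B.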 The conditions noted are these: GST-Bcl-B / FITC-TR3 peptide fluorescence polarization; stronger effect = higher value; compound at 3.75 mg/L. A general note: Fluorescence polarisation rises when a labelled molecule tumbles more slowly, as on binding a larger partner.
UniProt Q9HD36, sequence (Q9HD36 whole entry, looked up): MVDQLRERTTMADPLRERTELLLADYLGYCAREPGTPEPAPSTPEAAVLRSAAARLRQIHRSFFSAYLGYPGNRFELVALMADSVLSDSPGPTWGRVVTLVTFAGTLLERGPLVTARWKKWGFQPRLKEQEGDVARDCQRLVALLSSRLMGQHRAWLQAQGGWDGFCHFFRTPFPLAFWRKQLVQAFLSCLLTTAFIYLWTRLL
As for `O=C1c2ccccc2NC(c2ccc(Cl)c(Cl)c2)N1Cc1ccco1` (stereo not drawn), the displacement came to 10.9%.

With `O=C(c1cc2n(n1)C(C(F)(F)F)CC(c1ccc3c(c1)OCO3)N2)N1CCN(C(c2ccccc2)c2ccccc2)CC1` (stereo not drawn), the displacement is 14.5%. The result for `COc1ccc(Cl)cc1/C=C1\C(=O)NC(=O)N(c2ccc(Cl)cc2)C1=O` reads 5.1%; that for `O=C(COc1ccccc1[N+](=O)[O-])Nc1ccc2oc(-c3ccc(Br)cc3)nc2c1`, 10%. For the compound `Oc1c(/C=C2\C=Nc3ccccc32)sc(=S)n1-c1ccc(F)cc1`, the displacement was -13.8%. For `O=C(NN1C(=O)/C(=C/C=C/c2ccccc2[N+](=O)[O-])SC1=S)c1ccccc1Br`, the displacement is -0.6%. With `O=C1c2ccccc2C(=O)c2c1oc(C(F)(F)F)c2C(=O)c1ccccc1` the figure was -30.1%.

In the case of `CSc1nc2ccc(NC(=O)/C=C/c3ccccc3)cc2s1`, the displacement is -13.2%. `CS(=O)(=O)N(Cc1ccc(Cl)cc1)c1ccc(C(=O)NCC2CCCO2)cc1` (stereo not drawn): the displacement was -9.7%. The result for `Cc1cccc(C)c1OCC(=O)Nc1ccc(-c2nc3ccccc3[nH]2)cc1` reads 10.5%; that for `COc1ccc(/C=C/C(=O)Nc2ccccc2O)cc1`, 8.1%.

Take `COC(=O)C1=C(C)N(c2ccccc2)C(=O)/C1=C\c1ccc(C(=O)OC)cc1`: the displacement was 130%. Take `CSc1nc2ccc(NC(=O)CSc3ccccn3)cc2s1`: the displacement came to 1.5%.

Regarding `Cn1c2ccc(CC(N)=O)cc2c2cc(CC(N)=O)ccc21`, the displacement stood at 0%. Consider `CCC(=O)N1CCN(c2cc(C)c(C(C)=O)cc2F)CC1`, for which the displacement is -15.1%. As to `CN1CCN(C(=O)/C(=C\c2cccs2)NC(=O)c2ccccc2)CC1`, the displacement is -8.8%. `COc1ccc(/C=N\Nc2nc(-c3ccccc3)cc(-c3ccccc3)n2)cc1OC`: the displacement is -3.9%. With `O=C(Nc1ccc(NC(=O)c2ccc(-c3ccc(F)cc3)o2)cc1)c1ccco1`, the displacement was 4.5%. Consider `COC(=O)c1ccc(NC(=O)c2ccoc2C)cc1`, for which the displacement was -2.7%. In the case of `O=C(Nc1ccccc1O)c1cc(I)ccc1Cl`, the displacement amounted to 0.7%. With `Cc1ccc(CN2CCN(N=Cc3ccc(Br)cc3)CC2)c(C)c1` the figure was 11.9%; with `CCOC(=O)c1c(NC(=S)Nc2ccc(C)cc2)sc2c1CCN(Cc1ccccc1)C2`, -58.5%; with `COc1ccc(C=NCCC23CC4CC(CC(C4)C2)C3)c(OC)c1`, 1.2%. With `CCc1c(O)nc(SCCN(CC)CC)[nH]c1=O`, the displacement was -16.6%. As for `N#CC(C#N)=C1NC2(CCCCC2)Cc2ccccc21`, the displacement is -8%.

`CCOc1cc(C(=O)Nc2ccc([N+](=O)[O-])cc2C)cc(OCC)c1OCC`: the displacement was 11.4%. Take `O=c1c2ccccc2ncn1-c1ccc([N+](=O)[O-])cc1C(F)(F)F`: the displacement came to 4.6%. Take `CSc1nc2ccccc2n1CC(=O)NC(c1ccccc1)c1ccccc1`: the displacement came out at 10.4%. On to `CC(=Nc1ccncc1)C1=C(O)CC(C)(C)CC1=O`, for which the displacement came to 3%. `CN(C)c1ccc(CNC(=O)C(O)(c2ccc(Cl)cc2)c2ccc(Cl)cc2)cc1`: the displacement is -10.1%. Turning to `CCOc1ccc(N2C(=O)/C(=C/c3cc(OC)c(OC)c(OC)c3)SC2=S)cc1`, the displacement is -5.7%.

With `COc1cccc(/C=N/N(C)C2=NS(=O)(=O)c3cc([N+](=O)[O-])ccc32)c1O`, the displacement was -11.3%. The result for `COc1ccccc1-c1c(C(F)(F)F)oc2cc(OCc3ccccc3)ccc2c1=O` reads 5.5%; that for `COc1ccccc1NCCC(=O)c1ccccc1`, 5%; that for `CN(NC1CC(=O)N(c2cccc(Cl)c2)C1=O)c1ccccc1` (stereo not drawn), -6.5%. With `CCOC(=O)c1c(NC(=O)C(CC)Sc2nc(C)cc(C)n2)sc2c1CCCC2` (stereo not drawn) the figure was -6%; with `N/C(=N\c1nc2ccccc2o1)NC(=O)c1ccccc1`, -10.3%; with `O=C1CSC(c2ccc([N+](=O)[O-])cc2)N1c1cccc(Cl)c1` (stereo not drawn), -6%. As to `Cc1c(NC(=O)CSc2nnc(-c3cccc(F)c3)n2-c2ccccc2)c(=O)n(-c2ccccc2)n1C`, the displacement turned out to be 13.4%. For the compound `CCCCOc1ccc(C(=O)NCc2cccc3ccccc23)cc1`, the displacement is -6.8%. With `O=C(NCCOC(=O)c1ccc(F)cc1)c1ccncc1` the figure was 8.3%; with `NC(=O)C(Cc1c[nH]c2ccccc12)NC(=O)OCc1ccccc1` (stereo not drawn), 2.3%; with `CCOC(=O)c1ccc(NC(=O)c2ccccc2OC)cc1`, 11.9%.

On to `COc1ccccc1/C=C1\SC(=S)N(C(Cc2ccccc2)C(=O)O)C1=O` (stereo not drawn), for which the displacement was determined as 19.2%. Regarding `O=C(NC(=S)Nc1cccnc1)c1ccco1`, the displacement is -3.3%. Consider `CCCCC(=O)Nc1ccccc1C(F)(F)F`, for which the displacement was -2.2%. For the compound `CCOC(=O)C1=C(C)N=c2s/c(=C\c3ccc([N+](=O)[O-])o3)c(=O)n2C1c1cccs1` (stereo not drawn), the displacement is -19.3%. `O=C(Nc1cccc2ccccc12)c1ccc(-c2ccccc2)cc1`: the displacement amounted to 4.3%. The result for `COc1ccc(/C=C2/SC(=O)N(CNc3cc(C)ccc3C)C2=O)cc1OC` reads 12.7%; that for `COc1c(Cl)cc(C(=O)Nc2ccc(-c3nc4ccccc4o3)c(O)c2)cc1Cl`, 11%. On to `Cc1ccc(C2=N/C(=C\c3ccc(N(C)C)cc3)C(=O)O2)cc1`, for which the displacement amounted to 2.9%. The result for `O=C(Nc1cccc(-c2nc3ccccc3s2)c1)c1ccncc1` reads 21.5%; that for `N/C(CSc1nnc2c(n1)[nH]c1ccccc12)=N\O`, 16.3%. On to `O=C1O/C(=C\C(=O)N2CCOCC2)c2ccccc21`, for which the displacement came out at 2.4%.

With `CCn1c2ccccc2c2cc(/C=N/NC(=O)c3cccc(Br)c3)ccc21`, the displacement was determined as 5.1%. With `COc1cc(NC(=O)COc2ccccc2C)ccc1NC(=O)c1ccco1` the figure was 8.5%. Take `O=C(c1ccccc1)c1ccccc1C(=O)N(C1CCCCC1)C1CCCCC1`: the displacement came out at 5.8%. With `CC(=C(C#N)C#N)c1ccc2c(c1)OCCO2`, the displacement was 4.4%. In the case of `COc1cccc(C2=NN(C(=O)Cc3ccccc3)C(O)(C(F)(F)F)C2)c1` (stereo not drawn), the displacement is 2.9%.

As to `CCOc1ccc(NC(=O)CSc2nc3ccc(OC)cc3[nH]2)cc1`, the displacement is -15.6%.

Consider `O=C(NC1CCN(Cc2ccccc2)CC1)c1ccccc1Cl`, for which the displacement was -6.7%. For `COC(=O)c1ccccc1NC(=O)C1CC(=O)N(c2ccc(Br)cc2)C1` (stereo not drawn), the displacement was determined as 2.4%. The result for `O=C(Nc1ccccc1C(=O)N=Nc1c(O)[nH]c2ccccc12)c1ccccc1` reads 21.6%; that for `CCCN1CCC(=NNC(=O)c2ccc(O)cc2)CC1`, 7.1%. The result for `COc1cccc(C2(c3cccc(OC)c3)CC2C(=O)Nc2ccccc2Cl)c1` (stereo not drawn) reads -3.8%; that for `O=c1c[n+]([O-])c2ccccc2n1OCc1ccccc1`, 15.9%; that for `COc1cc2c(cc1OC)C(c1ccc(C)o1)SC(c1ccc(C)o1)=N2` (stereo not drawn), -1.1%.

Turning to `O=C(Oc1ccc([N+](=O)[O-])cc1)c1ccc(Cl)c(S(=O)(=O)N2CCOCC2)c1`, the displacement is -4.1%.

Regarding `COc1ccc(-c2cn3c4ccccc4n(N)c3n2)cc1`, the displacement was determined as 1.1%.

`Cc1ccc(S(=O)(=O)N2CCN(C(=O)c3cccnc3)CC2)cc1`: the displacement is -1.9%. As to `Cc1ccc([N+](=O)[O-])cc1NC(=O)COc1ccc(C(C)(C)C)cc1`, the displacement turned out to be 14.7%.

Consider `COc1ccc(Br)cc1/C=N/NC(=O)C(=O)NC1CCCCC1`, for which the displacement was 11.3%. For `CCN(CC)CCn1c(NC(C)=O)nc2ccccc21`, the displacement is -14.5%. In the case of `COc1cc(/C=C2\C(=O)NN(c3ccccc3)C2=O)ccc1OS(=O)(=O)c1ccccc1`, the displacement is -5.8%.

`Cn1cc(/C=C(/C#N)C(=O)Nc2cccc(Br)c2)c2ccccc21`: the displacement is -1.1%.

Consider `O=C(Nc1ccccc1[N+](=O)[O-])c1ccc(N2C(=O)CCC2=O)cc1`, for which the displacement was 5.5%. For the compound `O=C(/C=C(\O)c1ccccc1)C(=O)Nc1ccc(C(=O)O)cc1`, the displacement worked out at 0.3%. With `COc1cc(C=O)ccc1OC(C)c1ccccc1` (stereo not drawn), the displacement amounted to 1.1%.

As for `COc1ccc(Cl)cc1N(CC(=O)N1CCCCCC1)S(=O)(=O)c1ccc(C)c([N+](=O)[O-])c1`, the displacement was -15.9%.

For `COc1ccc(-c2nc3ccccc3c(=O)n2CCCn2ccnc2)cc1`, the displacement is -4.6%. For `O=C(Oc1ccc2c(Cl)c(C(=O)Nc3ccc(F)cc3)sc2c1)c1ccco1`, the displacement is 19.5%. The result for `C=CCSc1nc2sc3c(c2c(=O)n1CCc1ccccc1)CC(C)(C)OC3` reads -6.8%. As to `O=C(Nc1cccnc1)c1cc2n(n1)C(C(F)(F)F)CC(c1ccc(Br)cc1)N2` (stereo not drawn), the displacement is 1.1%. `COc1cc(C(=O)n2nc(C)c(Sc3ccc(C)cc3)c2C)cc(OC)c1OC`: the displacement was -0.8%. In the case of `O=C(NCc1ccco1)c1cc2nc(-c3ccccc3)cc(-c3ccccc3)n2n1`, the displacement was -4%. As to `CC1(C)C/C(=N\O)c2cc3c(nc2C1)CCCC3`, the displacement turned out to be 3%.

As to `Cc1cccc2c1N(C(=O)CN1C(=O)CCC1=O)C(C)(C)c1ssc(=S)c1-2`, the displacement was -2.3%. Consider `O=C(NCC1CCCO1)C(=O)Nc1ccccc1F` (stereo not drawn), for which the displacement amounted to 10%.

On to `O=C(CSc1nnc(-c2ccco2)o1)c1ccc(Br)cc1`, for which the displacement was -17%. `COc1ccccc1C(=O)N1CCN(Cc2ccccc2Br)CC1`: the displacement was -24.1%. Consider `O=[N+]([O-])c1ccc(C=Nc2ccc(Cl)cc2Cl)s1`, for which the displacement worked out at 13.7%. With `COc1ccc(S(=O)(=O)N(CC(=O)Nc2ccc(C(C)=O)cc2)c2cc(C)cc(C)c2)cc1OC` the figure was -4.7%; with `COc1cc(NC(=O)c2ccc(-c3ccccc3)cc2)ccc1NC(=O)c1ccco1`, 1.7%. With `Cc1ccc(NC(=O)CCCOc2ccccc2)cc1` the figure was 1.9%. For `Cc1ccc(C(=O)Nc2cccc3ccccc23)o1`, the displacement amounted to 16.6%. Regarding `COc1ccc(C(=O)NC(NC(=O)c2ccc(OC)c(OC)c2)c2ccc(Br)cc2)cc1OC`, the displacement turned out to be 8.2%. Consider `COc1ccc(S(=O)(=O)N2CCN(C3CCC(C)CC3)CC2)cc1` (stereo not drawn), for which the displacement is -25.6%. With `CC(=O)Nc1ccc(NS(=O)(=O)c2ccc(C(C)(C)C)cc2)cc1`, the displacement is -0.2%. With `O=[N+]([O-])OC12CC3CC(C1)CC([N+](=O)[O-])(C3)C2`, the displacement is -6.9%.

As for `Nc1cc(-c2ccc(Br)cc2)nn1C1CCCCC1`, the displacement is -7.2%. The result for `Cn1c(-c2ccco2)nc2c3ccccc3ccc21` reads 9.9%; that for `Cc1onc(-c2ccccc2Cl)c1C(=O)N1CCC(Cc2ccccc2)CC1`, 7.1%; that for `Cc1ccc(S(=O)(=O)Nc2cc(C(=O)O)cc(C(=O)O)c2)cc1`, -2.1%. On to `COc1ccc(CC(=O)Nc2ccc(Cl)c(C(F)(F)F)c2)cc1OC`, for which the displacement was found to be 6.1%. As to `Cc1ccccc1OCCn1cc(/C=C2/SC(=S)N(C)C2=O)c2ccccc21`, the displacement was found to be 11.6%. With `Cc1ccc(NC2(c3ccc(Cl)cc3)C(=O)c3ccccc3C2=O)cc1` the figure was 16.8%; with `S=C(NCCC(c1ccccc1)c1ccccc1)Nc1ccc(Cl)cc1Cl`, -4.5%; with `O=[N+]([O-])c1ccc(-c2nc(Cc3ccccc3Cl)no2)cc1`, 10.2%.
